Among the data in paper PMC12136788 are binding signal values, retold here.

This is one part of the list.

Sequences and labels used below:
T1: UNK ZnF1-6 (called full-length) (human, UniProt Q9C0B0 30-357)
T1 sequence: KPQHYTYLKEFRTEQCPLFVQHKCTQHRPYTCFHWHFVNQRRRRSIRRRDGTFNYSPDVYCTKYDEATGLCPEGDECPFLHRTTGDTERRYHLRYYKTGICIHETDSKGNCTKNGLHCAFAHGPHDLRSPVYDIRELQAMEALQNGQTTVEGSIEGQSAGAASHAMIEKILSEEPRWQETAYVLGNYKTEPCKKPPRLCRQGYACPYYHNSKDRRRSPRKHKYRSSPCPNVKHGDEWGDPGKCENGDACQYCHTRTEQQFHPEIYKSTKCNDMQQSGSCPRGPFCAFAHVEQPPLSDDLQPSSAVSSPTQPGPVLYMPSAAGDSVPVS

B1: chr8:58582127:58582250:+|3pUTR|ENSG00000137575|unk|FALSE|bound_elsewhere (ssRNA)
RNA: GGGAGUUCUACAGUCCGACGAUCUUCAUAUUACUUUAGUUCUAUAGCAUACUUGCAUCUUUAACAUGCUAUCAUAGUACAUUUAGAAUGAUUGCCUUUGAUUUUUUUUUUAAAUUCUGUGUGUGUGUGUGUAAAAUGCCAAUUCAACAGAGGAUUGAGCAUCA
B2: ENSG00000070961:be:win_4901|3pUTR|ENSG00000070961|bound_else_gene|NA|bound_elsewhere_windowed (ssRNA)
RNA: GGGAGUUCUACAGUCCGACGAUCCAGUGCAUCAGUCUGUUCUCUUUGACCACAAUUGGAAUACAUUUCAAGAUGGUAACAGCCCCAUGAAGUACCGCUUUAAUUCCUUGCUGGUAAUCUAAUAGAAUCAGAUUAAGAAAAUUACAACAGAGGAUUGAGCAUCA
B3: chr10:110898111:110898227:+|3pUTR|ENSG00000150593|unk|FALSE|bound_elsewhere (ssRNA)
RNA: GGGAGUUCUACAGUCCGACGAUCAUAAGAACUCUUGCAGUCUUAGAUGUUAUAAAAAUAUAUAUCUGAAUUGUAAGAGUUGUUAGCACAAGUUUUUUUUUUUUUUUUUUUUAAGCACUUGUUUUGGGUACAAGGCAUUUCUGACAACAGAGGAUUGAGCAUCA
B4: chr3:160434497:160434598:+|3pUTR|ENSG00000113810|msi1|FALSE|bound_elsewhere (ssRNA)
RNA: GGGAGUUCUACAGUCCGACGAUCUUUAUGAUAGGUUUAUCCGGGUACUAAAUGCAUUUCAACUUGAUAGUUUCAACUUAUGAUAGGUUUACCAGGAUGUAGUCCCACUGUUGAGGAGCAUCUAUUUAGGGGUUAAUUACUUUACAACAGAGGAUUGAGCAUCA
B5: chr5:113019263:113019364:+|3pUTR|ENSG00000172795|msi1|FALSE|unique (ssRNA)
RNA: GGGAGUUCUACAGUCCGACGAUCCUCAACUGUGAAUGAAAUUUAGAAAGAUAAUUCUUCAGCAGUUGGUUGAUUAGAUGGGUUAGUGCUUUUGGAAUAUAUAACAGUAGACUUGUAUUCUUUAUGCACUAUACAUAUGAUACGCAACAGAGGAUUGAGCAUCA
B6: chr11:95167508:95167609:-|3pUTR|ENSG00000149212|unk|FALSE|unique (ssRNA)
RNA: GGGAGUUCUACAGUCCGACGAUCAAUAAUGGAGACUGAAUGAGGCGGUUUGUAUUAAAUUAUAUGCCAUGAAGUGUUCAUUUUAGCUUUAACCUAAUUAUGACUGUACCACCAUGAAGUACAGAAUGAAAAAUUAUAUAUAUGCAACAGAGGAUUGAGCAUCA
B7: chr19:10133403:10133440:-|3pUTR|ENSG00000130816|msi1_unk|total|mutant (ssRNA)
RNA: GGGAGUUCUACAGUCCGACGAUCUUUUUUAUUAUGCAUUAUAUCAAAUCUACCACUGUAUGAGUGGAAAUUAAGACUUUAUGCCGUUUUUAUAUGUUGUAAUAUUUCUUCAAAUAAAUCUCUCCUAUAAACCACCCUGGGUGGCAACAGAGGAUUGAGCAUCA
B8: chr4:41955281:41955382:+|3pUTR|ENSG00000109133|msi1|FALSE|unique (ssRNA)
RNA: GGGAGUUCUACAGUCCGACGAUCGUAGGGGGAGGAGUUGUGGGGGAAUAAUGUGCAUUUCAGUCUCAACGCAUAGAUAAAUUUAGGGGAAUUGGAUGUAUUAUUCAACUUUGAUUUGGGUUGUAAAAUGUGUUAAAUCCUGUUCAACAGAGGAUUGAGCAUCA
B9: chr2:110123602:110123703:-|3pUTR|ENSG00000144061|unk|FALSE|unique (ssRNA)
RNA: GGGAGUUCUACAGUCCGACGAUCAUCCUCCACGAUUACGUGAAUAAAAUGAUGGAACCAAAAAUCACUGUCACUUUACAACUUAGGUUUUACUCUUUUCUUUCUACAGACCAUAUUUUUAAAGAAAUGUUUAUACAAUAAUUUCAACAGAGGAUUGAGCAUCA
B10: ENSG00000107863:be:win_3451|CDS|ENSG00000107863|bound_else_gene|NA|bound_elsewhere_windowed (ssRNA)
RNA: GGGAGUUCUACAGUCCGACGAUCGACUGCCCACCAGCUCAUACUAAUCGGUAUAUUCCAUUAAUAGUUGACAUAUGUUGCAAAUUAGUUGAAGAAAGAGGUCUUGAAUAUACAGGUAUUUAUAGAGUUCCUGGAAAUAAUGCACAACAGAGGAUUGAGCAUCA
B11: chrX:46853785:46853899:+|CDS|ENSG00000102218|unk|total|mutant (ssRNA)
RNA: GGGAGUUCUACAGUCCGACGAUCCAUCAUUGAGUCUUCCUCAAAUAUCAAAUUUGGAUGUUUUCAAUGGUACUAUCCUGAAUCCGCUUUCCAGUUCAAAGAUGCAGGGCUAAGUAUCUUCAACAAUACAUGGAGUAACAUUCACAACAGAGGAUUGAGCAUCA
B12: chr2:25232207:25232317:-|3pUTR|ENSG00000119772|unk|total|mutant (ssRNA)
RNA: GGGAGUUCUACAGUCCGACGAUCGGUGAGGGCCCGACGGGCAGGUGCUUGCCUGGGCCGAUGGGGUGCCGAUAUGUGGCAUACCGAGAUAUAUAUUUUAUAAUGGGAGGGGGGAUGGCACCUCCUGGGACUGGCCGAGCUGGGCAACAGAGGAUUGAGCAUCA
B13: ENSG00000107951:stop:overlap|stop_codon|ENSG00000107951|stop_codon|NA|stop_codon (ssRNA)
RNA: GGGAGUUCUACAGUCCGACGAUCUGCCACGUUCAAACAAGCAGCUUUUUGAAUUACUUUGUUAUGCAGAAAGUGUAAGUUUUUAGGUGUACCUCAACUUUUAGAACUAUGUAUUUUUUUAUGAACAAUAAAGAUUCCUGUAAACAACAGAGGAUUGAGCAUCA
B14: chr17:4937608:4937709:-|3pUTR|ENSG00000108528|msi1|FALSE|unique (ssRNA)
RNA: GGGAGUUCUACAGUCCGACGAUCAAGCGUCUCUUCCUCAGUGGCUGAAGCGGCCGGGGGCUCCCACUCGCCUGCUGCGCCUAUAGCCACUGCGCCCUGGGGGCCUGGGCUCUGCUGCCCUGGACCCCUCUAUUUAUUUCCCUUCAACAGAGGAUUGAGCAUCA

In this experiment the target is T1, UNK ZnF1-6 (called full-length). As to the kind of experiment: nsRBNS (natural sequence RNA bind-n-seq); RBNS binding buffer (assumed for nsRBNS): 25 mM Tris pH 7.5, 150 mM KCl, 3 mM MgCl2, 0.01% Triton X-100, 500 ug/ml BSA, 20 U/ml SUPERase-In, 4 C; UNK is unkempt and MSI1 is Musashi-1; names of the RNAs are library labels; protein concentration not given here; high values mean tight binding.
As to B1, the binding signal turned out to be 5 enrichment R.
B2 displayed a binding signal of 0.402 enrichment R.
B3 registered a binding signal of 8.17 enrichment R.
B4 registered a binding signal of 2.3 enrichment R.
The same measure for B5: 0.541 enrichment R; for B6: 8.52 enrichment R; for B7: 2.1 enrichment R.
B8 yielded a binding signal of 2.35 enrichment R.
Then B9, with 4.91 enrichment R; and B10, with 1.19 enrichment R.
Then B11, with 0.433 enrichment R.
Then B12, with 1.63 enrichment R.
As to B13, the binding signal came out at 0.514 enrichment R.
The same measure for B14: 0.764 enrichment R.
